Among the data in PubChem BioAssay AID1745853 (National Center for Advancing Translational Sciences (NCATS), 2022) are activity change, negative = inhibition values, retold here.

Experiment in all cases: Primary Screen for Target Class Profiling of Small Molecule Inhibitors of Methyltransferases
Assay [1] deals with Glycine N-methyltransferase (Homo sapiens) (UniProt Q14749). To be noted: purified enzyme, MTase-Glo SAH luminescence; measured here: GNMT inhibition; at 40 µM; stronger effect = lower value. In short, it runs like this: (§1)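 Each enzyme was assayed with SAM and its substrate. SAH formation detected by MTase-Glo luminescence; single-point 40 uM screen[…].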
Assay [2] has as its target Guanidinoacetate N-methyltransferase (Homo sapiens) (UniProt Q14353). To be noted: purified enzyme, MTase-Glo SAH luminescence; measured here: GAMT inhibition; at 40 µM; stronger effect = lower value. In short, it runs like this:
as §1

The target of assay [3] is Histamine N-methyltransferase (Homo sapiens) (UniProt P50135). The following applies: purified enzyme, MTase-Glo SAH luminescence; measured here: HNMT inhibition; at 40 µM; stronger effect = lower value. In short, it runs like this: as §1
The target of assay [4] is Nicotinamide N-methyltransferase (Homo sapiens) (UniProt P40261). The following applies: purified enzyme, MTase-Glo SAH luminescence; measured here: NNMT inhibition; at 40 µM; stronger effect = lower value. In short, it runs like this: as §1
Assay [5] has as its target Phenylethanolamine N-methyltransferase (Homo sapiens) (UniProt P11086). The following applies: purified enzyme, MTase-Glo SAH luminescence; measured here: PNMT inhibition; at 40 µM; stronger effect = lower value. In short, it runs like this:
as §1

This is one part of the list. Further columns of the screen follow, without active or inactive calls.
% is scaled to controls: 0 for no effect and ±100 for the full control effect.

Turning to `CC1CCC(NC(=O)Cn2c(=O)oc3cc(S(=O)(=O)N4CC(C)CC(C)C4)ccc32)CC1` (stereo not given), the activity change, negative = inhibition in assay [1] was -7.66%; in assay [2], 4.18%; in assay [3] it was -4.76%; in assay [4], -16.1%; in assay [5] it was -14.7%.

Regarding `COC(=O)c1[nH]c(=O)c2ccccc2c1-c1ccc[nH]1`, the activity change, negative = inhibition in assay [1] was 2.98%; in assay [2], 4.7%; in assay [3], 12.6%; in assay [4], -10.2%; in assay [5], 8.1%.

On to `CC(=O)N1CC2(CCN(CCCn3ccnc3C)CC2)CC1C(=O)O` (stereo not given), for which the activity change, negative = inhibition in assay [1] is -3.54%; in assay [2] it was 2.69%; in assay [3], -2.55%; in assay [4] it was -0.177%; in assay [5], -0.452%.

Consider `COC(=O)c1cc(OC)cc(OC)c1C(=O)c1c(OC)cc2c(c1O)C1CCCC(C)(O2)O1` (stereo not given), for which the activity change, negative = inhibition in assay [1] was 0.015%; in assay [2] it was 8.05%; in assay [3] it was 10.6%; in assay [4], -7%; in assay [5], 5.32%.

`Cc1ccc(C)c(C(=O)Cn2nc3n(C(C)C)c(=O)c4ccc(C(=O)NC5CCCCC5)cc4n3c2=O)c1`: the activity change, negative = inhibition in assay [1] stood at 4.28%; in assay [2], 1.53%; in assay [3], 12.8%; in assay [4], 0.279%; in assay [5], 5.39%.

As to `CC1CC(OC(=O)C(O)c2ccccc2)CC(C)(C)C1` (stereo not given), the activity change, negative = inhibition was -2.58% in assay [1]; 3.35% in assay [2]; -2.36% in assay [3]; -13.1% in assay [4]; -9.52% in assay [5].

With `Cc1ccc(C(=O)N2CCCC2C(=O)N2CCCC2c2nc3ccncc3[nH]2)cc1` (stereo not given), the activity change, negative = inhibition in assay [1] is -0.57%; in assay [2], 3.52%; in assay [3] it was 2.45%; in assay [4], -2.79%; in assay [5], 16.7%.

As for `CC(C)c1ccc(S(=O)(=O)N2CCCN(C)c3ccccc32)cc1`, the activity change, negative = inhibition in assay [1] was -13.4%; in assay [2], -7.5%; in assay [3], -9.55%; in assay [4], -19.5%; in assay [5], -18.1%.

Take `O=S(=O)(NCc1cccnc1)c1ccc(Cl)c(-c2nnc(-c3ccccc3)o2)c1`: the activity change, negative = inhibition in assay [1] was -7.25%; in assay [2], 1.86%; in assay [3], -4.46%; in assay [4], -10.3%; in assay [5], -4.68%.

On to `N[C@H]1CN(C(=O)c2cccc(-n3cnnc3)c2)C[C@@H]1c1ccccc1`, for which the activity change, negative = inhibition is -3.57% in assay [1]; -5.77% in assay [2]; -6.17% in assay [3]; -6.3% in assay [4]; -4% in assay [5].

Consider `C=C1C(=O)O[C@@H]2[C@H]3C(C)=CC(=O)C3=C(C)[C@@H](OC(=O)/C(C)=C\C)[C@H](O)[C@@H]12`, for which the activity change, negative = inhibition in assay [1] is 2.92%; in assay [2], 2.49%; in assay [3], 9.81%; in assay [4], -6.49%; in assay [5], 5.41%.

For the molecule `O=C(O)c1cccnc1Nc1cccc(C(F)(F)F)c1`, the activity change, negative = inhibition was -2.8% in assay [1]; 5.41% in assay [2]; 2.12% in assay [3]; -5.09% in assay [4]; 3.5% in assay [5].

For `CN1C(=O)c2cc(C(=O)NCc3ccccc3F)nn2CC1(C)C(=O)NC1CCCCC1` (stereo not given), the activity change, negative = inhibition in assay [1] is 4.27%; in assay [2] it was 1.6%; in assay [3] it was 1.25%; in assay [4], 0.898%; in assay [5] it was -1.05%.

With `CCOc1ccc(N2C(=O)c3c(C(=O)OC)ncn3CC2(C)C(=O)NC2CCCCCC2)cc1` (stereo not given), the activity change, negative = inhibition in assay [1] was -1.49%; in assay [2], 3.39%; in assay [3], -0.573%; in assay [4] it was 11.1%; in assay [5] it was 3.64%.

Turning to `C/C=C(\C)C(=O)OC[C@H]1O[C@H](O[C@H]2O[C@H](CO)[C@@H](OC(=O)/C(C)=C/C)[C@H](O)[C@H]2O[C@@H]2O[C@H](CO)[C@@H](O)[C@H](O)[C@H]2O)[C@H](O[C@@H]2O[C@H](CO)[C@@H](O)[C@H](O)[C@H]2O)[C@@H](O)[C@@H]1O`, the activity change, negative = inhibition in assay [1] is 3.4%; in assay [2], 7.48%; in assay [3] it was 11.1%; in assay [4], -3.94%; in assay [5] it was 5.83%.
